Laboratory results published in the RNAGym collection of RNA variant scans (doi:10.7554/elife.90254).
The source gives no read counts; variants with many changes may rest on few reads.

B1: LINE1-mini (parent)
chain: GGCAGAGCUCAACACAGCGUGGCAAAGUGGCUGUGGCUAGACUGCC

Variants of: B1
Test: self-cleavage, relative activity (ratio to wild type); higher = more cleavage; in vitro, sequencing; the parent is a self-cleaving ribozyme

Which self-cleavage does the source give for A25C U34G G40U here?
The self-cleavage was 0.04.

Which self-cleavage does the source give for C8U G21U C23G here?
Its self-cleavage is 0.12.

For C3G C10A G17U C18A, which self-cleavage is on record?
The self-cleavage was 0.01.

For A24C G36C C37U, which self-cleavage is on record?
Its self-cleavage is 0.05.

With A14G U32C A41U as the variant, how does the self-cleavage read?
The self-cleavage was 0.38.

With A26U G29A G35U as the variant, how does the self-cleavage read?
The self-cleavage was 0.14.

With G1U G2C A11C G21U C46A as the variant, how does the self-cleavage read?
The self-cleavage was 0.03.

With C13U A16U G35U C37U as the variant, how does the self-cleavage read?
Its self-cleavage is 0.04.

With G27C C31G U32G G33C U43C as the variant, how does the self-cleavage read?
The self-cleavage was 0.04.

With G2C C13G C23A G30A G35U U38A G40A as the variant, how does the self-cleavage read?
The self-cleavage was 0.09.

With C18G A25U G30C U38C as the variant, how does the self-cleavage read?
The self-cleavage was 0.35.

With C13G U34C A39G as the variant, how does the self-cleavage read?
The self-cleavage was 0.24.

For G2A C13G A26C G30U, which self-cleavage is on record?
The self-cleavage was 0.05.

With C8G A24U C31G as the variant, how does the self-cleavage read?
The self-cleavage was 0.08.

Which self-cleavage does the source give for G2C G5C G33A C45A here?
The self-cleavage was 0.03.

With C13A A24C G30U C42G C45G as the variant, how does the self-cleavage read?
Its self-cleavage is 0.04.

For G2U U9C A12C G35C C46G, which self-cleavage is on record?
The self-cleavage was 0.02.

With C3A C23G C46A as the variant, how does the self-cleavage read?
Its self-cleavage is 0.1.

With A25C U28C G30C as the variant, how does the self-cleavage read?
The self-cleavage was 0.7.

For A4G C10A G27C C31G G33A, which self-cleavage is on record?
Its self-cleavage is 0.

Which self-cleavage does the source give for A12C C18A G27C here?
Its self-cleavage is 0.05.

With G1U G21C C23A U38A as the variant, how does the self-cleavage read?
The self-cleavage was 0.14.

For G19A G21A C45U, which self-cleavage is on record?
The self-cleavage was 1.32.

With A6C U9C A14G C46U as the variant, how does the self-cleavage read?
Its self-cleavage is 0.03.

For G2A U9G G19U U38A, which self-cleavage is on record?
Its self-cleavage is 0.23.

With G5A G19A C23U C31A as the variant, how does the self-cleavage read?
Its self-cleavage is 0.02.

With C15G A26U G33A G36C U43A as the variant, how does the self-cleavage read?
Its self-cleavage is 0.02.

Which self-cleavage does the source give for A6U C8G C10U U32C A41U here?
Its self-cleavage is 0.01.

For C3A G22C C31A, which self-cleavage is on record?
Its self-cleavage is 0.18.

With C3U U20C A25C G40U as the variant, how does the self-cleavage read?
The self-cleavage was 0.04.

Which self-cleavage does the source give for C3G G27A C31U here?
Its self-cleavage is 0.15.

With C8U A11U G36C A39G A41U U43G as the variant, how does the self-cleavage read?
Its self-cleavage is 0.01.

For C3G A11U C13U A14U G17A A26C C31A, which self-cleavage is on record?
Its self-cleavage is 0.02.

Which self-cleavage does the source give for C3U G22A C23U G40A here?
The self-cleavage was 0.06.

Which self-cleavage does the source give for G2A U9A C18U C42G here?
Its self-cleavage is 0.19.

With C23A U34G A41U as the variant, how does the self-cleavage read?
Its self-cleavage is 0.27.

For A6U A14G C15G C31U U32C U34C C37A, which self-cleavage is on record?
Its self-cleavage is 0.

With G2C A14C G33U U34C as the variant, how does the self-cleavage read?
The self-cleavage was 0.18.

With U9G G21A G30U C31A as the variant, how does the self-cleavage read?
The self-cleavage was 0.02.

Which self-cleavage does the source give for C10U C23A A41C here?
Its self-cleavage is 0.02.

For A4U G5A U28C C31U, which self-cleavage is on record?
The self-cleavage was 0.08.

With G5U G21U G29U C46U as the variant, how does the self-cleavage read?
Its self-cleavage is 0.07.

Which self-cleavage does the source give for G1A G29U G33C C37U here?
Its self-cleavage is 0.05.

For G1C G5A U9C A39C C46G, which self-cleavage is on record?
Its self-cleavage is 0.01.

Which self-cleavage does the source give for G2U G5A U38G here?
Its self-cleavage is 0.06.

Which self-cleavage does the source give for G5U G30A G35U C45U here?
The self-cleavage was 0.05.

With C10A A11G C23A C42A as the variant, how does the self-cleavage read?
Its self-cleavage is 0.02.

With A16C G21U G30A U34C as the variant, how does the self-cleavage read?
The self-cleavage was 0.03.

For U20C C23U C42G, which self-cleavage is on record?
The self-cleavage was 0.04.

With G21U U38A C46A as the variant, how does the self-cleavage read?
The self-cleavage was 0.3.

For A4G G36U G40U, which self-cleavage is on record?
Its self-cleavage is 0.08.

For C13A C15A G22C A26G, which self-cleavage is on record?
Its self-cleavage is 0.01.

With A6U C15G A16U U20A U28G as the variant, how does the self-cleavage read?
Its self-cleavage is 0.21.

Which self-cleavage does the source give for G2A A12C A14U U34G U43C here?
Its self-cleavage is 0.03.

With G2U G5A C31A U32A as the variant, how does the self-cleavage read?
Its self-cleavage is 0.03.

For A4G A11U A24C, which self-cleavage is on record?
Its self-cleavage is 0.05.

Which self-cleavage does the source give for G1U G40A C42U here?
Its self-cleavage is 0.03.

With C3G G19U C23G G30A as the variant, how does the self-cleavage read?
Its self-cleavage is 0.76.

For A12U A25U G27U C31A G40U U43C G44C, which self-cleavage is on record?
The self-cleavage was 0.

For A24U C31U U34A C45G C46G, which self-cleavage is on record?
The self-cleavage was 0.02.

Which self-cleavage does the source give for C3G G5U C23U G30U here?
The self-cleavage was 0.29.

Which self-cleavage does the source give for G33A C37U C46U here?
The self-cleavage was 0.1.

For G17C C18A G29A, which self-cleavage is on record?
Its self-cleavage is 0.15.

With A6G G30U G40C C46G as the variant, how does the self-cleavage read?
The self-cleavage was 0.11.

For G7U A12U C13A G19A, which self-cleavage is on record?
Its self-cleavage is 0.12.

Which self-cleavage does the source give for A4U G21A G33A A39U here?
Its self-cleavage is 0.05.

Which self-cleavage does the source give for C3A G7A C37U here?
The self-cleavage was 0.56.

With C3G G19C C31G as the variant, how does the self-cleavage read?
The self-cleavage was 0.12.

For C3G G5U A26C, which self-cleavage is on record?
Its self-cleavage is 0.07.

For G2U C8A C13A, which self-cleavage is on record?
The self-cleavage was 0.04.

Which self-cleavage does the source give for G5U C13G G33U G35U here?
Its self-cleavage is 0.09.

Which self-cleavage does the source give for G7A C8U G36A here?
The self-cleavage was 0.22.

Which self-cleavage does the source give for G7A A25U U32A C45A here?
The self-cleavage was 0.12.

Which self-cleavage does the source give for C18A C31U U34G here?
Its self-cleavage is 0.

For C8U A11G C15A G27C C45U, which self-cleavage is on record?
Its self-cleavage is 0.03.

Which self-cleavage does the source give for A12U C15G C45U here?
The self-cleavage was 0.

For U32C C37A U38C A41G C42U C45U, which self-cleavage is on record?
Its self-cleavage is 0.03.

For C3A C18U G19U G30U, which self-cleavage is on record?
The self-cleavage was 0.07.

For G7A A14U A26C G33U U38C G44A, which self-cleavage is on record?
Its self-cleavage is 0.03.

With G1C A12U C15G G22U C37A A39U G44C as the variant, how does the self-cleavage read?
Its self-cleavage is 0.01.

Which self-cleavage does the source give for C8A G27U G33A here?
Its self-cleavage is 0.05.

Which self-cleavage does the source give for G19A G30C C31G C45U here?
The self-cleavage was 0.19.

Which self-cleavage does the source give for G1U U9C U34G here?
Its self-cleavage is 0.
